# Measurements as given in PubChem BioAssay AID493014 (National Center for Advancing Translational Sciences (NCATS), 2011).
# The whole screen tested about 340,000 compounds, of which about 170 (0.05%) were called active. About 26% were inconclusive and are not listed. Calls follow the shape of the dose curve; as a rule, active = well fitted inhibition curve with a large enough effect in the signal ratio, with a control signal flat (not every such curve was filed as active); inconclusive = small, poorly fitted or top-dose-only effect, or effect the other way, or a change in a side signal; inactive = flat fitted curve, though single readings scatter; the % refers to the signal ratio. This is a selection; strong and weak results do not stand in their true shares.
# Experiment: qHTS Assay to Find Inhibitors of Chronic Active B-Cell Receptor Signaling;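 as to activity change, negative = inhibition: plate controls were basal doxycycline-induced cells for no effect and cells given 10 µM MG132 for full effect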
# Details: ABC-DLBCL IkBa-CBG/CBR reporter, luminescence ratio (green luciferase fused to IkBa over red control in TMD8 lymphoma cells), 4 h; series mostly up to 46.1 µM; activity change, negative = inhibition: at the top concentration
# Summary of the method: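 Concentration-response series (up to 46 uM) were applied to TMD8 dual-reporter cells for 4 h at 37C with doxycycline. Green/red ratio, after filter-overlap correction, defined %Activity; red signal alone was normalised to basal cells and zero luminescence.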
# Potency is read from the fitted curve at half-maximal effect.
SMILES,"activity change, negative = inhibition",Potency
CC(C)=CCN1CC[C@@]2(C)c3cc(O)ccc3C[C@@H]1C2C (stereo not given in full),inactive: 0.0042%,
CC(=O)CC(c1ccccc1)c1c(O)c2ccccc2oc1=O (stereo not given),inactive: 10.2%,
O=C1OC(=O)C2C3CCC(O3)C12 (stereo not given),inactive: 12.4%,
C=C(C)[C@@H]1CC=C(CN2CCN(Cc3ccccc3)CC2)CC1,inactive: -0.17%,
COc1cc(/C=C/[N+](=O)[O-])ccc1O,,active: 20.6 µM
C[C@]12CC[C@@H](O)C[C@@H]1CC[C@@H]1[C@@H]2CC[C@]2(C)[C@@H](O)CC[C@@H]12,inactive: -12.2%,
O=C1/C(=C\c2ccc([N+](=O)[O-])cc2)N2CCC1CC2,inactive: -14.9%,
CCOC(=O)C1=C(N)OC2=C(C(=O)CCC2)C12C(=O)N(CC(N)=O)c1ccccc12 (stereo not given),inactive: -4.44%,
COC1=CC2[C@@H]3Cc4ccc(OC)c(O)c4[C@]2(CCN3C)CC1=O (stereo not given in full),inactive: -0.484%,
C[C@]12CCC3C(CC[C@H]4C[C@@H](O)CC[C@]34C)C1CC[C@@H]2O (stereo not given in full),inactive: -2.39%,
C[N+]1(C)[C@@H]2CC[C@H]1CC(OC(=O)[C@@H](CO)c1ccccc1)C2 (stereo not given in full),inactive: 6.65%,
CC(C)[N+]1(C)[C@@H]2CC[C@H]1CC(OC(=O)C(CO)c1ccccc1)C2 (stereo not given in full),inactive: -2.97%,
Cc1ccc(C(=O)N/C(=C\c2ccc(-c3cccc([N+](=O)[O-])c3)o2)C(=O)NCCCN(C)C)cc1,inactive: -1.51%,
Oc1ccc2c3c1O[C@H]1c4[nH]c5ccccc5c4C[C@@]4(O)C(C2)N(CC2CC2)CC[C@]314,inactive: 4.84%,
CC(=O)O[C@]1(c2ccccc2)CCN(C)[C@H]2CCCC[C@@H]21,inactive: -8.63%,
c1cc2c(cc1C1OCC3C(c4ccc5c(c4)OCO5)OCC13)OCO2 (stereo not given),inactive: -3.34%,
Cc1cc(/C=C2\C(=O)NC(=O)N(c3ccc(Br)cc3)C2=O)c(C)n1C,inactive: 1.47%,
O=C(O)[C@H]1C[C@@H]1[C@H](NP(=O)(c1ccccc1)c1ccccc1)c1ccccc1,inactive: -2.27%,

SMILES,"activity change, negative = inhibition",Potency
C[C@]12CCC(=O)C=C1CCC1C2CC[C@@]2(C)C1CC[C@@H]2O (stereo not given in full),inactive: -9.68%,
[2H]c1c([2H])c([2H])c(C(=O)c2sc(N3CCCCCC3)nc2-c2ccccc2)c([2H])c1[2H],inactive: 12.5%,
O=[N+]([O-])/C(C(Cl)=C(Cl)Cl)=C(\Sc1ccccc1)N1CCCCC1,inactive: 7.73%,
Cc1c(OCC(F)(F)F)ccnc1CS(=O)c1nc2ccccc2[nH]1 (stereo not given),inactive: 2.59%,
CC1=CC(=O)C2=C(C)C[C@H](O)[C@@H]3[C@H](OC(=O)[C@H]3C)[C@@H]12,inactive: -9.98%,
C=CCN1C(=O)/C(=C/c2ccc(N3CCOCC3)o2)C(=O)NC1=S,inactive: -4.58%,
COC(=O)C1=COC(C)C2CN3CCC4(C(=O)Nc5ccccc54)C3CC12 (stereo not given),inactive: 3.88%,
COc1ccc(NC(=O)CCS(=O)(=O)c2ccc3c(c2)oc(=O)n3C)cc1OC,inactive: 0.972%,
CCC(COC(=O)c1cc(OC)c(OC)c(OC)c1)(c1ccccc1)N(C)C (stereo not given),inactive: 0.634%,
Oc1ccc2c3c1OC1c4[nH]c5ccccc5c4C[C@@]4(O)C(C2)N(CC2CC2)CC[C@]314 (stereo not given in full),inactive: -0.721%,
O=c1ccc2cc(OC3O[C@H](CO)[C@@H](O)[C@H](O)[C@H]3O)c(O)cc2o1 (stereo not given in full),inactive: 0.251%,
C[C@@H]1O[C@@H]1P(=O)(O)O,inactive: 2.7%,
Cc1ccccc1-n1c(O)c(/C=N/c2nccs2)c(=O)[nH]c1=O,inactive: 0.245%,
COC(=O)C1=CO[C@@H](C)[C@@H]2CN3CC[C@]4(C(=O)Nc5ccccc54)[C@@H]3C[C@H]12,inactive: 1.15%,
C[N+]1(C)[C@@H]2CC[C@H]1CC(OC(=O)C(CO)c1ccccc1)C2 (stereo not given in full),,inactive
Cc1cccc(NC(=O)C2CCCN(S(=O)(=O)c3ccc4c(c3)oc(=O)n4C)C2)c1 (stereo not given),inactive: 2.78%,
COc1ccc2c3c1OC1CC(O)C=CC31CCN(C)C2 (stereo not given),inactive: -0.728%,
